Assay results from PubChem BioAssay AID445 (National Center for Advancing Translational Sciences (NCATS), 2006).
About 40 (0.04%) of roughly 110,000 compounds were called active. The inconclusive results got no clear call from the source; some entries with a clear call stand among them for comparison. Calls come from the whole dose curve; as a rule, active = well fitted curve in the direction sought with a large enough effect in the signal ratio (not every such curve was filed as active); inconclusive = small, poorly fitted or top-dose-only effect, or a change in a side signal; inactive = flat fitted curve, though single readings scatter; the % refers to the signal ratio. Potencies beside an inconclusive call are fits to weak or partial responses and may not hold up.

Experiment: IkB Signaling;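 for IkBa stabilization activation: 0% = basal untreated cells and 100% = reference inhibitor full response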
Conditions: ABC-DLBCL IkBa-CBG/CBR dual luciferase ratio (green luciferase fused to IkBa over red control in OCI-Ly3 lymphoma cells), 4 h; IkBa stabilization activation: at 57.1 µM (top of the series), scaled: untreated 0%, proteasome inhibitor 100% unless noted
In short: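 Luminescence ratio of IκBα-fused green versus native red beetle luciferase in OCI-Ly3 cells, 4 h post-doxycycline with compound; red signal alone, scaled from basal (0%) to zero light (-100%), flagged nonspecific or cytotoxic effects.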
Potency is the fitted concentration of half-maximal effect.

Question: For `Cc1cc(C)c2cc(C#N)c(N3CCCC3)nc2c1`, which “IkBa stabilization activation” value is on record?
Answer: inactive: -1.03%

Question: Which IkBa stabilization activation does the source give for `CNS(=O)(=O)c1cc(-c2nn3c(C)nnc3c3ccccc23)ccc1C` here?
Answer: inconclusive: 11.3% [signal inhibitor]

Question: Which Potency does the source give for `CCOC(=O)c1c(NC(=O)c2cc(-c3ccc(Cl)cc3)on2)sc2c1CCCC2` here?
Answer: inconclusive: 15.8 µM [signal inhibitor]

Question: Which IkBa stabilization activation does the source give for `CCOc1ccc(-c2cc3nc(C4CCN(C(=O)OC(C)(C)C)CC4)c(C(=O)Nc4ccc(C)c(F)c4)cn3n2)cc1` here?
Answer: inconclusive: 0.596% [signal inhibitor]

Question: With `Cc1ccc(C)n1-n1cnc2sc(-c3ccccc3)cc2c1=O` as the molecule, how does the IkBa stabilization activation read?
Answer: inconclusive: 4.11% [signal inhibitor]

Question: With `CCC(=O)N1CCc2cc(Br)cc(S(=O)(=O)N3CCC(C(=O)N(CC)CC)CC3)c21` as the molecule, how does the IkBa stabilization activation read?
Answer: inconclusive: -0.111% [signal inhibitor]

Question: With `CCn1cc(C(=O)N2CCN(c3cc(Cl)ccc3C)CC2)c(=O)c2cc(S(=O)(=O)N3CCOCC3)ccc21` as the molecule, how does the IkBa stabilization activation read?
Answer: inconclusive: 2.08% [signal inhibitor]

Question: For `Cc1cccc(NC(=O)CSC2=Nc3ccccc3C3=NC(CCC(=O)NCc4ccc(F)cc4)C(=O)N23)c1` (stereo not given), which IkBa stabilization activation is on record?
Answer: inconclusive: 4.97% [signal inhibitor]

Question: For `CCOc1ccccc1NC(=O)Cc1csc(COc2cccc(C)c2)n1`, which “IkBa stabilization activation” value is on record?
Answer: inactive: 0.496%

Question: For `Cc1cccc(C)c1NC(=O)Cn1cnc2c(=O)n(C)c(=O)n(C)c21`, which “IkBa stabilization activation” value is on record?
Answer: inactive: -0.73%

Question: With `CC1CCN(S(=O)(=O)c2ccc(C(=O)Nc3nc4ccc(F)cc4s3)cc2)CC1` as the molecule, how does the IkBa stabilization activation read?
Answer: inconclusive: 0.669% [signal inhibitor]

Question: With `O=C(CSC1=NCCN1)c1ccccc1` as the molecule, how does the IkBa stabilization activation read?
Answer: inactive: -0.257% [at 11.4 µM, scaled: untreated 0%, proteasome inhibitor 100%]

Question: Which IkBa stabilization activation does the source give for `O=C(CCSc1nc(-c2ccco2)cc(C(F)(F)F)n1)N1CCCc2ccccc21` here?
Answer: inconclusive: 6.61% [signal inhibitor]

Question: With `Cc1ccc(NC(=O)c2cccc(N3CCCS3(=O)=O)c2)cc1C` as the molecule, how does the “IkBa stabilization activation” value read?
Answer: inactive: -0.802%

Question: With `CC(C(=O)Nc1ccccc1C(F)(F)F)n1nnc2sc3c(c2c1=O)CCCC3` (stereo not given) as the molecule, how does the IkBa stabilization activation read?
Answer: inconclusive: 1.61% [signal inhibitor]

Question: With `O=C1CCCC2=C1C1(O)C(=O)c3ccccc3C1(O)O2` (stereo not given) as the molecule, how does the IkBa stabilization activation read?
Answer: inconclusive: 11.7% [signal inhibitor]

Question: For `CCc1ccc(CNC(=O)CSc2c3c(nc4ccc(Cl)cc24)CCCC3)cc1`, which IkBa stabilization activation is on record?
Answer: inconclusive: -0.571% [signal inhibitor]

Question: Which “IkBa stabilization activation” value does the source give for `CCS(=O)(=O)NCC(c1ccco1)N1CCN(c2ccccc2)CC1` (stereo not given) here?
Answer: inactive: -1.74%

Question: With `N[C@@H]1C=CC=C(C(=O)O)C1` as the molecule, how does the “IkBa stabilization activation” value read?
Answer: inactive: -3.28%

Question: Which IkBa stabilization activation does the source give for `Cc1ccc2c(c1)C(c1ccccc1)N(C(=O)c1ccc(S(=O)(=O)N3CCCCC3)cc1)CC(=O)N2` (stereo not given) here?
Answer: inconclusive: 9.81% [signal inhibitor]
